Whole data set: some 110,000 compounds, median “z-score” near -0.1, cut for the highest 2% near 2. The list shows a part of the results. Active and inactive are the calls of the source.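 How the source made its calls: active means z-score in the third read window above 3 or below -3; inactive means the rest.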

This assay deals with Metabotropic glutamate receptor 8 (Rattus norvegicus) (UniProt P70579). The assay is described as follows: mGluR8 Gi/Go-coupled signaling modulation – cell-based, rat, thallium flux, HTS, primary screen (AID 488969). The settings on record: HEK293 rat mGluR8, GIRK (G protein-gated inwardly rectifying potassium channel) thallium flux, FluoZin2; at 10 µM; stronger effect = higher value; submaximal glutamate (EC20) added with thallium.
Chain of UniProt P70579 (P70579 whole entry, looked up): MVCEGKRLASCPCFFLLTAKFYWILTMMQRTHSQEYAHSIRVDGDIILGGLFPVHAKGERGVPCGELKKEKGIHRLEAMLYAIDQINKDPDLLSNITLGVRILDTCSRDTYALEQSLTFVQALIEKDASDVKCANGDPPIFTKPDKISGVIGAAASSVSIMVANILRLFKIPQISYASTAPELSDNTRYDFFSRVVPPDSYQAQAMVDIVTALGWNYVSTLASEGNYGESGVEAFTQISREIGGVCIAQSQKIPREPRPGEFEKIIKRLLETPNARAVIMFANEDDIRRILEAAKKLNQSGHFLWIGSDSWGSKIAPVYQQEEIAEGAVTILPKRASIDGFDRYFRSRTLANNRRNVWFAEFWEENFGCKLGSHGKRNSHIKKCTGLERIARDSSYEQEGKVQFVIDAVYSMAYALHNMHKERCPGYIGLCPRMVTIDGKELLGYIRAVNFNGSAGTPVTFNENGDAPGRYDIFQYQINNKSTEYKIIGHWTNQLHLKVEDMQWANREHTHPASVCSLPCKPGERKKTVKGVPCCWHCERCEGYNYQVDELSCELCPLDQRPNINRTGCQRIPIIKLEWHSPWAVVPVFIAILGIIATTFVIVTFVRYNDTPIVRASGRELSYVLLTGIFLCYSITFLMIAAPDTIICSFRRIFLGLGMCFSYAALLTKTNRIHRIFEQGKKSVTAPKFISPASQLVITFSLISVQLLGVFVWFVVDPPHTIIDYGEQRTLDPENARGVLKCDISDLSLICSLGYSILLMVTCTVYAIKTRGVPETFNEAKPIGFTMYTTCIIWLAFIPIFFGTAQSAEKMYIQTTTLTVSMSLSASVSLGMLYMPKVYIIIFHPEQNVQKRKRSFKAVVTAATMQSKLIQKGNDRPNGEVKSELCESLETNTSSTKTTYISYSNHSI
`CC(C)[C@H](NS(=O)(=O)c1ccccc1)C(=O)OCC(=O)NC(=O)c1cccn1C` had a z-score of 0.302.
The same measure for `CCCN(CC(=O)Nc1ccccc1Br)CC(=O)Nc1ccc(F)c(F)c1F`: -0.145.
The same measure for `CC(C)(C)c1cc(CNC2CS(=O)(=O)C[C@@H]2O)cc(C(C)(C)C)c1O` (stereo not given in full): -0.0329.
The result for `COc1cc(NC(=S)N2CCN(c3ccccn3)CC2)c(OC)cc1Cl` reads -0.225; that for `O=C(C1CCN(c2nnnn2-c2ccccc2)CC1)N1CCN(c2ccccc2)CC1`, -0.146; that for `CN(C)S(=O)(=O)Nc1ccccc1C(N)=O`, 0.208.
Take `CC(C)CNS(=O)(=O)c1ccc(S(=O)(=O)N2CCC3(CC2)OCCO3)cc1`: the z-score was -1.75.
With `O=C1CC(C(=O)N2CCN(c3ccc(F)cc3)CC2)CN1CCc1ccccc1` (stereo not given), the z-score is -0.367.
The same measure for `COc1ccccc1Nc1nc(-c2sc(NC(=O)c3ccc([N+](=O)[O-])cc3)nc2C)cs1`: 0.09; for `CCOC(=O)Cn1nc(-c2ccc(Cl)cc2)cc1N`: -0.0867; for `CCOC(=O)/C(C(C)=O)=C1\OC(=O)c2ccccc21`: -0.414.
The result for `NC(=O)Cn1c(=O)n(CCc2ccccc2)c(=O)c2c3c(sc21)CCCC3` reads -0.313; that for `CC1=C(C)CC(C(=O)Nc2nc(-c3ccc(C)cc3C)c(C)s2)C(C(=O)O)C1` (stereo not given), -0.91.
As to `O=C(NCCCn1ccnc1)c1cc(-c2ccc(Cl)cc2)nc2ccccc12`, the z-score was -0.0592.
`COc1ccc(N2CC(C(=O)Nc3ccccc3C(=O)NCc3ccco3)CC2=O)cc1` (stereo not given) registered a z-score of -0.164.
The same measure for `O=C(NCC1CCCO1)c1cccc(N2C(=O)C3C4C=CC(C4)C3C2=O)c1` (stereo not given): 0.367.
The compound `Cc1ccn(C(CC(=O)c2ccc(Br)cc2)C(=O)O)n1` (stereo not given) came in with a z-score of -0.213.
The result for `O=C(CSc1nnc(-c2ccc(F)cc2)c2ccccc12)Nc1cccc(Cl)c1` reads 0.00588.
The compound `CCCSc1nc(C)nc2c1c(=O)n(C)c(=O)n2C` displayed a z-score of -1.49.
The same measure for `COC(=O)C1=C(NC(C)=O)CCS1`: 0.792; for `CC(=O)c1sc(NC(=O)c2ccccc2F)nc1C`: -0.14.
Take `COc1cc(C=Nc2cccc(C)c2)c(O)c([N+](=O)[O-])c1`: the z-score is -0.684.
The same measure for `Cc1ccc(C(=O)NNC(=O)c2cccc(S(=O)(=O)N3CCN(c4ccccc4)CC3)c2)cc1`: -0.324; for `O=C(Nc1ccon1)c1ccc(S(=O)(=O)N2CCCCCC2)cc1`: -0.427; for `C=CCn1c(C(CC(C)C)CC(C)O)n[nH]c1=S` (stereo not given): -0.476.
The result for `COc1ccccc1NC(=S)NNC(=O)c1ccc(O)cc1` reads -0.545; that for `Cc1ccc(C(=O)Nc2nnc(SCC(=O)N3CCCc4ccccc43)s2)cc1`, 0.0792.
For the compound `COc1ccc(Cl)cc1NC(=O)CN1CCC(n2nnc3cc(F)ccc32)CC1`, the z-score is -0.0313.
`CC(C)c1ccc2[nH]c(O)c(N=NC(=O)c3ccc(CSc4nncn4C)cc3)c2c1` had a z-score of -0.159.
In the case of `CCN1C2=NCCCN2c2cc(C)c(C)cc21`, the z-score stood at 0.542.
For `Cc1cc(N2CCN(c3nc(N4CCOCC4)nc4ccccc34)CC2)c2ccccc2n1`, the z-score stood at 0.213.
`C/C(CC1(O)C(=O)N(Cc2ccccc2)c2ccccc21)=N\O` (stereo not given) registered a z-score of 1.12.
As for `Cc1cc2ccccc2c(=O)n1CC(=O)N1CCN(c2cccc(Cl)c2)CC1`, the z-score was 0.19.
For the compound `Cc1occc1C(=O)NC(C)C(C)(C)C` (stereo not given), the z-score came to 0.462.
The same measure for `CCC(Sc1nc(C)cc(=O)[nH]1)C(=O)Nc1nnc(C)s1` (stereo not given): -2.59; for `CCOCCCn1c(SCc2nc3ccccc3s2)nc2ccccc2c1=O`: -0.415.
On to `Cc1onc(-c2ccccc2Cl)c1C(=O)N1CCCCC1C(=O)O` (stereo not given), for which the z-score was 1.48.
For the compound `COc1cc2c(cc1NS(=O)(=O)N1CCCCC1)oc1ccccc12`, the z-score is -0.115.
`Cc1ccccc1NC(=S)N1CCOCC1` yielded a z-score of 0.469.
The result for `Cc1cccc(NC(=O)C2(c3ccc([N+](=O)[O-])cc3)CCCC2)c1` reads -0.327; that for `COc1ccccc1S(=O)(=O)Nc1cccc(-c2nnc3n2CCCCC3)c1`, -0.163.
The result for `Cc1ccc(NC(=S)N/N=C/c2c(Cl)cccc2Cl)c(C)c1` reads active: 9.31.
The result for `Cc1noc(C)c1CSc1nnc(-c2ccccc2)n1N` reads -0.0754; that for `O=C(Cn1cnc2ccccc2c1=O)Nc1nnc(SCc2ccccc2)s1`, -0.255.
Take `O=C(NC(Cc1ccccc1)C(=O)O)/C(=C\c1ccco1)NC(=O)c1ccccc1` (stereo not given): the z-score is -0.146.
The result for `Cn1c(=O)c2c(nc(CN3CCc4ccccc4C3)n2CC(=O)c2ccccc2)n(C)c1=O` reads -0.969.
`COc1ccc(C(=O)CN2C(=O)NC3(CCCc4ccccc43)C2=O)cc1OC` (stereo not given) returned a z-score of -0.109.
The result for `COc1ccc(CC(=O)Nc2ccc(-c3noc(-c4cc(OC)c(OC)c(OC)c4)n3)cc2)cc1` reads 0.703; that for `Cc1ccc(-c2nc(CSCC(=O)NCc3cccnc3)c(C)o2)cc1`, 0.521.
The same measure for `O=C(CCc1ccc(S(=O)(=O)NCCc2ccccc2)cc1)NCc1ccco1`: -0.0958; for `CN(C)S(=O)(=O)c1ccc(Cl)c(NC(=O)COC(=O)C2CSC3(C)CCC(=O)N23)c1` (stereo not given): 0.535; for `O=C1CC(C(=O)Nc2ccc(C(=O)N3CCOCC3)cc2)C2(CCCCC2)O1` (stereo not given): -0.248.
The result for `CCCC(=O)N1c2ccccc2C(=C2SC(C(=O)OC)=C(C(=O)OC)S2)C(=S)C1(C)C` reads 0.183; that for `C=CCN(c1ccccc1)S(=O)(=O)c1cccc(C(=O)Nc2nc3ccccc3[nH]2)c1`, -0.176; that for `O=C1CCCc2nn(-c3ccccc3)nc21`, 0.93.
In turn, `FC(F)(F)c1cccc(OCCN2CCN(Cc3ccccc3)CC2)c1` yielded a z-score of 0.397.
The result for `O=S(=O)(c1ccccc1Cl)N1CCCC1c1nc(-c2ccccc2Cl)no1` (stereo not given) reads -0.426; that for `COc1ccc(C(=O)N2CC=C(c3ccccc3)CC2)cc1S(=O)(=O)N1CCOCC1`, -0.516.
The same measure for `CC(=O)N1C(=O)/C(=C2\SC(=S)N(c3c(C)n(C)n(-c4ccccc4)c3=O)C2=O)c2ccccc21`: -0.512; for `COC(=O)c1[nH]c2ccc(C)cc2c1NC(=O)CN1CCN(c2ccc(F)cc2)CC1`: -0.183.
Compound `O=C(CN1CCN(Cc2ccccc2Cl)CC1)N=Nc1c(O)[nH]c2ccccc12` yielded a z-score of -0.318.
Take `O=C(Nc1ccc(-c2nnc(-c3ccccc3)o2)cc1)C(F)(F)F`: the z-score turned out to be 0.955.
The compound `O=C1OC(Nc2ncccn2)c2ccccc21` (stereo not given) returned a z-score of -0.0312.
Turning to `CSc1nnc(-c2cc(-c3ccc(C)cc3)nc3ccccc23)o1`, the z-score is -0.0721.
Turning to `CCOC(=O)N1CCC(NC(=O)CN2C(=O)CSc3nc(C)cc(C)c32)CC1`, the z-score is 1.13.
The result for `CCOc1ccc(OCc2ccc(C(=O)N3N=C(C(F)F)CC3(O)C(F)F)o2)cc1` (stereo not given) reads 0.47; that for `CCc1sc(-c2c(C#N)c(N)nc3c2CCCCCC3)cc1[N+](=O)[O-]`, -0.138.
Turning to `COc1ccc(-c2c(C#N)c(SCC(N)=O)nc3c2CCCC3)cc1`, the z-score was -0.089.
The result for `Cc1ccc(Cl)cc1N1CCN(C(=O)CN2C(=O)c3cccc4cccc2c34)CC1` reads 1.97.
For `Cc1ccc(NN=Nc2nc3c([nH]2)c(=O)n(C)c(=O)n3C)cc1`, the z-score was 0.267.
The compound `O=c1[nH]nc(Cc2ccc(-c3cccc(Cl)c3)o2)c2ccccc12` had a z-score of -0.0601.
Compound `Oc1c(Br)cc(C2N=C(c3ccccc3)NO2)cc1Br` (stereo not given) came in with a z-score of -0.338.
The result for `CCOC(=O)c1c(C)[nH]c(C(=O)COC(=O)c2ccc(N3CCCC3=O)cc2)c1C` reads 0.0485; that for `Cn1cccc1/C=C1\SC(=S)N(NC(=O)c2cccc(Cl)c2)C1=O`, -0.218; that for `CC(Cc1ccccc1)NC(=O)c1ccc([N+](=O)[O-])cc1` (stereo not given), -0.0984.
Consider `C/C(=N\NC(=O)c1nn(C)c(C)c1Br)c1ccc(NC(=O)c2ccccc2F)cc1`, for which the z-score is -0.124.
The same measure for `CCN(CC)C(=O)CN1C(=O)C2(OCC(C)(c3ccccc3)CO2)c2ccccc21` (stereo not given): -0.553.
The result for `CC(=O)Nc1ccc(C(=O)N/N=C/c2cccnc2)cc1` reads -0.709; that for `Cc1cccc(N2CCN(C(=O)c3ccc(N4CCCC4=O)cc3)CC2C)c1` (stereo not given), -0.0519.
The result for `Cc1cc(Cl)ccc1OC(C)c1nnc(N)s1` (stereo not given) reads 1.98; that for `CCCNC(=S)Nc1ccc(Cl)cc1C`, -0.142; that for `CN(C)c1nc(OCCNC(=O)COc2ccc(Cl)cc2Cl)nc(N2CCOCC2)n1`, -0.541.
In turn, `CCc1ccccc1NC(=O)CSc1nnc(Cn2nnc3ccccc32)n1C` came in with a z-score of 0.18.
For the compound `Cc1cc(C)c(S(=O)(=O)ON2C(=O)c3ccccc3C2=O)cc1C`, the z-score is 0.253.
The same measure for `COc1ccc(CN(C(=O)c2cnccn2)C(C(=O)Nc2ccc(F)cc2)c2ccccc2)cc1` (stereo not given): -0.407; for `COc1ccc(-n2cnc3cc(N)ccc32)cc1`: -0.0506.
The result for `COc1cc(C(C#N)N2N=C(c3ccccc3)CC2c2ccccc2)ccc1O` (stereo not given) reads -0.262; that for `CCOC(=O)c1ccccc1NC(=O)c1cn(-c2ccc(OC)cc2)c(=O)c2ccccc12`, -0.291; that for `COc1ccccc1CNC(=O)COC(=O)Cc1c(Cl)cccc1Cl`, 0.27.
The result for `COc1ccc(C2OC(=O)c3ccccc3S2)cc1` (stereo not given) reads -0.435; that for `O=C(COc1ccc(F)cc1)NNC(=O)c1cc2ccccc2oc1=O`, -0.0129.
The compound `CC1SC(C)C(=O)N(CC(=O)NCc2ccc(F)cc2)C1=O` (stereo not given) yielded a z-score of 0.557.
The compound `CCS(=O)(=O)N1CCN(c2ccc(C(=O)NC3C4CC5CC(C4)CC3C5)cc2[N+](=O)[O-])CC1` (stereo not given) returned a z-score of -0.251.
The same measure for `Cc1cccc(C)c1Nc1nnc(SCC(=O)NCc2cccs2)s1`: 0.0784; for `O=C(COC(=O)c1cn(-c2ccccc2)nc1-c1ccccc1)c1ccc([N+](=O)[O-])cc1`: -0.413.
Consider `Cc1ccc(C)c(N(CC(=O)NC2CCCC2)C(=O)c2oc(C(C)(C)C)cc2C)c1`, for which the z-score came out at 0.144.
Turning to `CC(C)(C)C(=O)OCc1cn(-c2ccc(Cl)cc2)nn1`, the z-score is -0.337.
The same measure for `Cn1ncc([N+](=O)[O-])c1C(=O)N/N=C/c1ccc(F)cc1`: 0.132; for `CCN(CC)S(=O)(=O)c1ccc(OC)c(NC(=O)CSc2cc(C)ccc2C)c1`: -0.247.
The result for `CCOC(=O)CSc1nc2cc(C(=O)OC)ccc2c(=O)n1CCN1CCOCC1` reads -0.288; that for `O=C(CCCOc1ccccc1)N1CCN(c2ccccn2)CC1`, -0.0282; that for `COCCNC(=O)c1onc(CSc2cccc(C)c2)c1C(=O)O`, -0.0105.
Compound `COc1ccccc1NS(=O)(=O)c1cc(NC(=O)CNC(=O)c2ccccc2)ccc1C` had a z-score of 0.333.
The result for `COc1ccc(N(C(=O)COc2ccccc2)C2C=CS(=O)(=O)C2)cc1` (stereo not given) reads 0.581.
Turning to `Cc1ccc2c(c1)NC(=O)C(CC(=O)NCCN(CC(C)C)CC(C)C)O2` (stereo not given), the z-score was determined as 1.96.

The values are drawn from PubChem BioAssay AID488969 (Vanderbilt High Throughput Screening Facility, 2010).
